The supplement of paper PMC7125110
This sample is rich in variants without activity.

B1: glmS ribozyme (parent)
chain: AUAAAAGCGCCAGAACUACAGAAAUGUAGUUGACGAGGAGGAGGUUUAUCGAAUUUUCGGCGGAUGCCUCCAAA

How the values were obtained:
Conditions in all cases: with glucosamine-6-phosphate
glucosamine-6-phosphate [1] = variants of: B1; test: self-cleavage kobs at 40 uM GlcN6P; higher = faster cleavage; RNA array
Procedure, shortened: (§1)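 Barcoded glmS ribozyme variants on sequenced MiSeq chips were transcribed in situ by E. coli RNA polymerase and tracked through a hybridised Cy3 probe at 37 °C. Glucosamine-6-phosphate (40 μM to 10 mM) in HEPES/KCl/Mg(OAc)2 buffer was flowed in, and tiles were imaged over ~14 h. Signals were normalised to baseline and to non-cleaving reference variants; per-tile medians were fit to one- or two-exponential decays to give kobs. kcat and KM came from weighted Michaelis–Menten fits across concentrations.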

glucosamine-6-phosphate [2] = variants of: B1; test: self-cleavage kobs at 640 uM GlcN6P; higher = faster cleavage; RNA array
Procedure, shortened: as §1

glucosamine-6-phosphate [3] = variants of: B1; test: self-cleavage kobs at 160 uM GlcN6P; higher = faster cleavage; RNA array
Procedure, shortened: as §1

glucosamine-6-phosphate [4] = variants of: B1; test: self-cleavage kobs at 2500 uM GlcN6P; higher = faster cleavage; RNA array
Procedure, shortened: as §1

glucosamine-6-phosphate [5] = variants of: B1; test: self-cleavage kobs at 10000 uM GlcN6P; higher = faster cleavage; RNA array
Procedure, shortened: as §1

| Variant | self-cleavage kobs at 40 uM GlcN6P (glucosamine-6-phosphate [1]) [s⁻¹] | self-cleavage kobs at 640 uM GlcN6P (glucosamine-6-phosphate [2]) [s⁻¹] | self-cleavage kobs at 160 uM GlcN6P (glucosamine-6-phosphate [3]) [s⁻¹] | self-cleavage kobs at 2500 uM GlcN6P (glucosamine-6-phosphate [4]) [s⁻¹] | self-cleavage kobs at 10000 uM GlcN6P (glucosamine-6-phosphate [5]) [s⁻¹] |
| --- | --- | --- | --- | --- | --- |
| AUAAAAUCGCCAGAACUACAGAAAUGUAGUUGACGAGGAGCAGGUUUAUCGAAUUUUCGGCGGAUGCCUCCAAA | < 1e-05 | < 1e-05 | < 1e-05 | < 1e-05 | < 1e-05 |
| AUAAAAUCGCCAGAACUACAGAAAUGUAGUUGACGAGGAGGAGUUUUUUCGAAUUUUCGGCGGAUGCCUCCAAA | < 1e-05 |  |  |  | < 1e-05 |
| AUAAAAUCGCCAGAACUACAGAAAUGUAGUAGACGAGGAGGAGGUUUAUCGAAUUUUCGGCGAAUGCCUCCAAA | < 1e-05 |  |  |  | < 1e-05 |
| AUAAAAUCGCCAGAACUACAGAAAUGUAGUUGACGAGGAGGAGGUUUAUCGAAUUAUCGGCGGAUGCCUCCAAA | < 1e-05 | < 1e-05 | < 1e-05 |  | < 1e-05 |
| AUAAAAGAGCCGGAACUACAGAAAUGUAGUUGCCGAGGAGGAGGUUUAUCGAAUUUUCGGCGGACGCCUCCAAA | < 1e-05 |  |  |  | < 1e-05 |
| AUAAAAGAGCCAGGACUACAGAAAUGUAGUUGACGAGGAGUAGGUUUAUCGAAUUUUCGGCGGAUGCCUCCAAA | < 1e-05 |  | < 1e-05 |  | < 1e-05 |
| AUAAAAGAGCCAGAACUACAGAAAUGUAGUUGACGCGGAGGAGGUUUAUCGAAUUUUCGGCGGAUGCCUCCAAA | < 1e-05 |  | < 1e-05 | < 1e-05 | < 1e-05 |
| AUAAAAGAGCCAGAACUACAGAAAUGUAGUUGACGAGGAGGGGGUUUAUCGAAUUUUCGGCGGAUGCCUCCAAA | < 1e-05 | < 1e-05 | < 1e-05 |  | < 1e-05 |
| AUAAAAGAGACAGAACUACAGAAAUGUAGUUGACGAGGAGGAGUUAUAUCGAAUUUUCGGCGGAUGACUCCAAA | < 1e-05 |  |  | < 1e-05 |  |
| AUAAAAGAGUCAGAACUACAGAAAUGUAGUUGAGGAGGAGGAGGUUUAUCGAAUUUUCGGCGGAUGCCUCCAAA | < 1e-05 |  |  |  |  |
| AUAAAAGAGCUAGAACUACAGAAAUGUAGUUGACGAGCAGGAGGUUUAUUGAAUUUUCGGCGGAUGCCUCCAAA | < 1e-05 | < 1e-05 |  | < 1e-05 |  |
| AUAAAAGAGCCAGAAAUACAGAAAUGUAGUUGACGACGAGGAGGUUUAUCGAAUUUUCGGCGGAUGCCUCCAAA | < 1e-05 |  |  |  |  |
| AUAAAAGAGCCAGAAUUACAGAAAUGUAGUUGACGAGGAGGAGGUUUAUCGAAUUUUCGGCGGAUGCCUCCAAA | < 1e-05 | < 1e-05 | < 1e-05 | < 1e-05 | < 1e-05 |
